Hit rate of the full screen: of about 350,000 compounds, about 260 (0.074%) were called active. Inconclusive means that the source gave no clear call. Such entries were picked first, then a sample of the others. Calls come from the whole dose curve; as a rule, active = well fitted inhibition curve with a large enough effect; inconclusive = small, poorly fitted or top-dose-only effect; inactive = no such curve, though single readings can be large or run the other way. Potencies of inconclusive entries are doubtful fits and often do not repeat.
The compounds below were run against Ferritin light chain (Equus caballus) (UniProt P02791) (assay: qHTS Assay for Identification of Novel General Anesthetics). Conditions: apoferritin/1-aminoanthracene competitive binding, fluorescence; activity change, negative = displacement: at 77.5 µM (top of the series).
Method in brief: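 Concentration-response curves derived by four-parameter Hill fitting of normalized fluorescence, where compounds displaced 1-AMA from 10 uM horse apoferritin following a brief 10 min room-temperature incubation; propofol titration acted as positive control.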
% is set by controls: 0 for no effect and ±100 for the full control effect; potency is the fitted concentration of half-maximal effect; tags give direction and shape of the fitted curve.
Note: nearly all actives have a fitted effect of over 20% in size.

Chain of UniProt P02791 (P02791 whole entry, looked up): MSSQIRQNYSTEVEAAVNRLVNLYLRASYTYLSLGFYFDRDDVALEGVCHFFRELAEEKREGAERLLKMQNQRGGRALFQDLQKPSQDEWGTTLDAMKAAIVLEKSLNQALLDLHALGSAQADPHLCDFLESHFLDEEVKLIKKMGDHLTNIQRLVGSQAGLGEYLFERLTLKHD

SMILES | Potency | activity change, negative = displacement
CC1CCC/C(=N\NC(=S)NCc2ccccc2)C1 (configuration not stated) | inconclusive: 25.1 µM [inhibitor, partial curve] | –
C[C@@H]1O[C@@H](OC[C@H]2O[C@@H](Oc3c(-c4ccc(O)c(O)c4)oc4cc(O)cc(O)c4c3=O)[C@H](O)[C@@H](O)[C@@H]2O)[C@H](O)[C@H](O)[C@H]1O | – | inactive: -10.7%
O=C(NC1CCCCC1)N1CCCc2ccccc21 | inconclusive: 22.4 µM [inhibitor, partial curve] | –
COc1ccc2cc(CN(C(=O)Nc3ccccc3OC)C3CCCC3)c(=O)[nH]c2c1 | inconclusive: 8.91 µM [inhibitor, partial curve] | –
Cc1ccc(C)c(N(C(=O)c2ccco2)C(C(=O)NC2CCCC2)c2ccco2)c1 (configuration not stated) | – | inactive: -11.9%
COc1ccc(C)cc1NC(=O)C1CCCN(S(=O)(=O)c2cccc3cccnc23)C1 (configuration not stated) | inconclusive: 12.6 µM [inhibitor, partial curve] | –
COc1ccc(-c2nc(CN3CCCCC3c3nccn3C)c(C)o2)c(C)c1C (configuration not stated) | inconclusive: 25.1 µM [inhibitor, partial curve] | –
COc1cc(-c2noc(-c3ccc(NC4CCCC4)c([N+](=O)[O-])c3)n2)cc(OC)c1OC | inconclusive: 35.5 µM [inhibitor, single point] | –
Cc1ccc(-c2noc(CN(C(=O)CCCCCN3C(=O)c4ccccc4C3=O)C(C)C)n2)cc1 | inconclusive: 50.1 µM [inhibitor, single point] | –
CN(C)CCCN(C(=O)c1ccc(S(=O)(=O)N(C)C2CCCCC2)cc1)c1nc2ccc(Br)cc2s1 | inconclusive: 39.8 µM [inhibitor, single point] | –
COc1cccc(CNc2ncnc3cc(OC)c(OC)cc23)c1 | – | inactive: -1.18%
COc1ccc(C(=O)COc2nc(C)cc(C)c2C#N)cc1 | inconclusive: 22.4 µM [inhibitor, partial curve] | –
CC(C)Cc1ccc(/C=C/C(=O)N2CCCCC2)cc1 | inconclusive: 31.6 µM [inhibitor, partial curve] | –
O=C1CC(c2ccccc2)=Nc2ccccc2N1 | inconclusive: 28.2 µM [inhibitor, partial curve] | –
CCOc1ccccc1CNC(=O)c1cc2c(=O)n(Cc3ccco3)ccc2nc1C | inconclusive: 39.8 µM [inhibitor, partial curve] | –
CCOC(=O)c1sc(N(Cc2ccccc2)C(=O)CSc2ncn[nH]2)nc1C | inconclusive: 28.2 µM [inhibitor, partial curve] | –
C=CCN(Cc1cccc(OC)c1OC)S(=O)(=O)N(C)C | inconclusive: 28.2 µM [inhibitor, partial curve] | –

Reference: PubChem BioAssay AID485281 (National Center for Advancing Translational Sciences (NCATS), 2010)
